The source gives no read counts; variants with many changes may rest on few reads.
B1: LINE1-mini (parent)
chain: GGCAGAGCUCAACACAGCGUGGCAAAGUGGCUGUGGCUAGACUGCC

Variants of: B1
Assay: self-cleavage, relative activity (ratio to wild type); higher = more cleavage; in vitro, sequencing; the parent is a self-cleaving ribozyme

Row | Variant | self-cleavage
1 | GGCAGAGCUCAACACAGCGUGGCAAAGUAGCUGUCGAUAGACUGCC | 0.15
2 | GGCAGAGCUCAACACAGCGUGGCAAAGUUUCUGUGGCUAAACUGCC | 0.28
3 | GGCAGAGCUCAACACAGCGUGGCAAAGUAGCAGUGUCUAGACUGCU | 0.13
4 | GGCAGAGCUCAACACAGCGUGGCAAAGUCGCUGUGAGUAGACUGCC | 0.01
5 | GGCAGAGCUCAACACAGCGUGGCAAAGUAGCUAUCGUUAGACUGCC | 0.03
6 | GGCAGAGCUCAACACAGCGUGGCAAAGUAGAUGUUGCUAUACUGCC | 0.04
7 | GGCAGAGCUCAACACAGCGUGGCAAAGUAGCUGGGACUAGACCGCC | 0.02
8 | GGCAGAGCUCAACACAGCGUGGCAAAGUUACUGUGGCUAGUCUGCC | 0.76
9 | GGCAGAGCUCAACACAGCGUGGCAAAGUUACUGUGGCUAGCCUGCC | 0.01
10 | GGCAGAGCUCAACACAGCGUGGCAAAGUUGCUGUUGCUCGACUGCC | 0.01
11 | GGCAGAGCUCAACACAGCGUGGCAAAGUCGUUGUGGCGAGACUGCC | 0.01
12 | GGCAGAGCUCAACACAGCGUGGCAAAGUAGCUUUGGCUAGACUGAC | 0.02
13 | GGCAGAGCUCAACACAGCGUGGCAAAGUUGCUGUAGAUAGACUGCC | 2.14
14 | GGCAGAGCUCAACACAGCGUGGCAAAGUCGCUUUGGUUAGGCUGCC | 0.13
15 | GGCAGAGCUCAACACAGCGUGGCAAAGUCGCUGUGGGUAGACUGGC | 0.01
16 | GGCAGAGCUCAACACAGCGUGGCAAAGUUGCUAUGGCUAGGCUGCC | 0.08
17 | GGCAGAGCUCAACACAGCGUGGCAAAGUAGCUGUCCAUAGACUGGC | 0.02
18 | GGCAGAGCUCAACACAGCGUGGCAAAGUUUCUUUGGCUAGACUGCC | 0.03
19 | GGCAGAGCUCAACACAGCGUGGCAAAGUAGCUGUCGCUAGCUUGCC | 0.03

Row | Variant | self-cleavage
20 | GGCAGAGCUCAACACAGCGUGGCAAAGUUGCUGUGGCUACAUUGCC | 0.07
21 | GGCAGAGCUCAACACAGCGUGGCAAAGUUGCCGUGGCUACACUGCC | 0.17
22 | GGCAGAGCUCAACACAGCGUGGCAAAGUCGCUGUGGCUAUACGGUC | 0.03
23 | GGCAGAGCUCAACACAGCGUGGCAAAGUCGCUGUGGCUAUAAUGCC | 0.11
24 | GGCAGAGCUCAACACAGCGUGGCAAAGGGGCUGCGGCUACAUUGAA | 0.02
25 | GGCAGAGCUCAACACAGCGUGGCAAAGUUGAUGUGGCUAGACUGUC | 0.19
26 | GGCAGAGCUCAACACAGCGUGGCAAAGUCGGGGUGGCUAGACUGCC | 0.06
27 | GGCAGAGCUCAACACAGCGUGGCAAAGUAGCUGUGGCUAGCCUCCC | 0.05
28 | GGCAGAGCUCAACACAGCGUGGCAAAGUCGGUGUGCCUAAACUGCC | 0.11
29 | GGCAGAGCUCAACACAGCGUGGCAAAGUUACUGUGGCUAUACUGCC | 0.08
30 | GGCAGAGCUCAACACAGCGUGGCAAAGUCGCUGAGGCUAGACUGCA | 0.04
31 | GGCAGAGCUCAACACAGCGUGGCAAAGUCGCUGUCGCAAGACUGCC | 0.05
32 | GGCAGAGCUCAACACAGCGUGGCAAAGUCCCUGUGGUUCGACUGCC | 0.01
33 | GGCAGAGCUCAACACAGCGUGGCAAAGUAGCUGUGGCUGGAUGGCC | 0.04
34 | GGCAGAGCUCAACACAGCGUGGCAAAGGGGCUGGAGCUAGACUGCC | 0.19
35 | GGCAGAGCUCAACACAGCGUGGCAAAGUUGCUGUCGAUAGACUGCC | 0.12
36 | GGCAGAGCUCAACACAGCGUGGCAAAGUUGAAGUGGCUAGACUCCC | 0.03
37 | GGCAGAGCUCAACACAGCGUGGCAAAGUCGCUGUGUCGAGAAUGCC | 0
38 | GGCAGAGCUCAACACAGCGUGGCAAAGUAGCCGUGGCUAGACUGCA | 0.19

Row | Variant | self-cleavage
39 | GGCAGAGCUCAACACAGCGUGGCAAAGUAGCUGUGGCUAUACUGCA | 0.08
40 | GGCAGAGCUCAACACAGCGUGGCAAAGUCGCUGUGGUCAGACUGCC | 0.07
41 | GGCAGAGCUCAACACAGCGUGGCAAAGUCGAUGUGGCUAGGCUGCC | 0.15
42 | GGCAGAGCUCAACACAGCGUGGCAAAGUUGCUGUUGCUAGACUGUA | 0.02
43 | GGCAGAGCUCAACACAGCGUGGCAAAGUCGGCGUGGCUAUACUGCC | 0.06
44 | GGCAGAGCUCAACACAGCGUGGCAAAGUAGCUUUGGCUAGUCUGCA | 0.05
45 | GGCAGAGCUCAACACAGCGUGGCAAAGUCGCUAUGGCUAAACUGCC | 0.06
46 | GGCAGAGCUCAACACAGCGUGGCAAAGUCGCUGUGGUUUGACUGCC | 0
47 | GGCAGAGCUCAACACAGCGUGGCAAAGUAGCAGUGGAUAGACUGCC | 0.1
48 | GGCAGAGCUCAACACAGCGUGGCAAAGUUGCUAUGGCUAUACUGCC | 0.05
49 | GGCAGAGCUCAACACAGCGUGGCAAAGUAGCUGUGUGUAGACAGCC | 0.01
50 | GGCAGAGCUCAACACAGCGUGGCAAAGUUGCUGUGGAUAGACUCCC | 0.03
51 | GGCAGAGCUCAACACAGCGUGGCAAAGUCGCUGUGACUAGAAUGCC | 0.01
52 | GGCAGAGCUCAACACAGCGUGGCAAAGUUACUGUGGCUAGAGUGCC | 0.06
53 | GGCAGAGCUCAACACAGCGUGGCAAAGUAGCUGUGGGUAGACUGGA | 0.04
54 | GGCAGAGCUCAACACAGCGUGGCAAAGUUGCUGUGGUUACACUGCC | 0.07
55 | GGCAGAGCUCAACACAGCGUGGCAAAGUUGCUGAAGCCAGACUGAC | 0
56 | GGCAGAGCUCAACACAGCGUGGCAAAGUAGCUGUCGCUAGACUGAC | 0.03

Reference: the RNAGym collection of RNA variant scans (doi:10.7554/elife.90254)
